Hit rate of the full screen: of about 400,000 compounds, about 5,500 (1.4%) were called active. Inconclusive results (about 9%) are left out. Calls follow the shape of the dose curve; as a rule, active = well fitted cell-killing curve with a large enough effect; inconclusive = small, poorly fitted or top-dose-only effect, or effect the other way; inactive = flat fitted curve, though single readings scatter. Some compounds were tested as several samples or in several runs, with calls that do not always agree. A number of entries come with more than one value. They are shown here; other results are not. An entry can have further records. The records of an entry are repeats across runs, samples, wells, individuals or studies. A tag in brackets gives the origin of a value. The letters are not those of the source and start again with each entry.
Potency is read from the fitted curve at half-maximal effect.

The nature of the assay: qHTS assay for MDR1-selective chemotherapeutics: Primary screen using the parental adenocarcinoma cell KB-3-1. Also: nearly all actives have a fitted effect of over 60% in size. Conditions: KB-3-1 viability, CellTiter-Glo ATP luminescence, 72 h; series mostly up to 46.1 µM. From the text:
A prime difficulty in effectively treating cancer is the development of cellular resistance to multiple structurally unrelated anticancer drugs, a phenomenon known as multidrug resistance (MDR). […] Numerous strategies to overcome P-gp-mediated MDR have been explored, including the design of drugs that evade recognition and efflux, and development of inhibitors to block efflux and restore drug accumulation. […] An alternative approach is to exploit resistance by identifying drugs that target MDR cells over the non-resistant parental cells from which they were selected. […]
Our goal is to identify compounds that selectively kill P-gp-expressing MDR cells. […] This assay will be utilized to conduct a quantitative high-throughput screen (qHTS) in collaboration with the NIH Chemical Genomics Center to identify selective agents, and probe hits arising from the screen will be validated using secondary assays and characterized through a well-established follow-up research program. […]
Briefly, 5 microL of media containing either KB-3-1 cells (columns 1-2, 4-48) are dispensed into Greiner white, treated solid-bottom 1536-well assay plates (media-only control is added to column 3). […] CellTiter-Glo (2.5 µL/well) is then added, and the plates are read in a ViewLux reader (Perkin-Elmer, clear luminescence filter, 1 second exposure, 1x binning) following a 10 minute incubation. […]
In general terms: In qHTS, concentration-response curves come from the screen itself.
For the compound `O=C(Cn1c[n+](CC(=O)c2ccc([N+](=O)[O-])cc2)cn1)c1ccc([N+](=O)[O-])cc1`, the Potency entry was “inactive [sample A] and active: 11.6 µM [sample B]”.

Turning to `O=C(C[C@H]1C(=O)N(c2ccc(F)c(F)c2)C[C@@H]1Cc1ccccc1)Nc1ccccc1`, the Potency entry was “inactive [sample A] and active: 20.6 µM [sample B]”.

(Values after PubChem BioAssay AID1347075 (National Center for Advancing Translational Sciences (NCATS), 2019).)
